# The other results are listed elsewhere or left out.
# B1: Gal 7 (Canis lupus) (protein)
# chain: MAGSSNVPHKTSLPEGIRVGTVMRIRGVVPNKAGRFYVNLLCGEAPGSEAALHFNPRLDESTVVFNTLEQGAWGREERGTGIPFQRGQPFDVLLIATDEGFKAVVGDSEYHHFRYRIPPARVRLLEVGGDLQLESVSVF
# Legend:
# Experiment in all cases: glycan array binding signal (z-score within array); higher = stronger binding
# Conditions in all cases: glycan notation: IUPAC condensed, linker removed
# [1] = biological target: Gal(b1-4)GlcNAc(b1-2)[Gal(b1-4)GlcNAc(b1-4)]Man(a1-3)[Gal(b1-4)GlcNAc(b1-2)[Gal(b1-4)GlcNAc(b1-6)]Man(a1-6)]Man(b1-4)GlcNAc(b1-4)GlcNAc
# In short: (§1)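 From the Consortium for Functional Glycomics database, 3228 arrays were curated, keeping only those whose protein sequence was available. Binding is given as a within-array Z-score averaged across arrays sharing a protein sequence and across linkers. Negative Z-scores can be read as non-binding.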
# [2] = biological target: Gal(b1-4)GlcNAc(b1-2)[Gal(b1-4)GlcNAc(b1-4)]Man(a1-3)[GlcNAc(b1-4)][Gal(b1-4)GlcNAc(b1-2)Man(a1-6)]Man(b1-4)GlcNAc(b1-4)GlcNAc
# In short: as §1
# [3] = biological target: Gal(b1-4)GlcNAc(b1-2)[Gal(b1-4)GlcNAc(b1-6)]Man(a1-6)[GlcNAc(b1-4)][Gal(b1-4)GlcNAc(b1-2)Man(a1-3)]Man(b1-4)GlcNAc(b1-4)GlcNAc
# In short: as §1
# [4] = biological target: Gal(b1-4)GlcNAc(b1-3)Gal(b1-3)GlcNAc
# In short: as §1
# [5] = biological target: Gal(b1-4)GlcNAc(b1-3)Gal(b1-4)Glc
# In short: as §1
# [6] = biological target: Gal(b1-4)GlcNAc(b1-3)Gal(b1-4)GlcNAc
# In short: as §1
# [7] = biological target: Gal(b1-4)GlcNAc(b1-3)Gal(b1-4)GlcNAc(b1-3)Gal(b1-4)GlcNAc
# In short: as §1
# [8] = biological target: Gal(b1-4)GlcNAc(b1-3)Gal(b1-4)[Fuc(a1-3)GlcNAc(b1-6)]Gal(b1-4)Glc
# In short: as §1
# [9] = biological target: Gal(b1-4)GlcNAc(b1-3)Gal(b1-4)[Fuc(a1-3)]GlcNAc(b1-3)Gal(b1-4)[Fuc(a1-3)]GlcNAc
# In short: as §1
# [10] = biological target: Gal(b1-4)GlcNAc(b1-3)GalNAc
# In short: as §1
# [11] = biological target: Gal(b1-4)GlcNAc(b1-3)[Gal(b1-4)GlcNAc(b1-6)]Gal(b1-4)GlcNAc
# In short: as §1
# [12] = biological target: Gal(b1-4)GlcNAc(b1-3)[Gal(b1-4)GlcNAc(b1-6)]GalNAc
# In short: as §1
# [13] = biological target: Gal(b1-4)GlcNAc(b1-3)[GlcNAc(b1-6)]Gal(b1-4)GlcNAc
# In short: as §1
# [14] = biological target: Gal(b1-4)GlcNAc(b1-6)Gal(b1-4)GlcNAc
# In short: as §1
# [15] = biological target: Gal(b1-4)GlcNAc(b1-6)GalNAc
# In short: as §1
# [16] = biological target: Gal(b1-4)GlcNAc(b1-6)[Gal(b1-3)]GalNAc
# In short: as §1
# [17] = biological target: Gal(b1-6)Gal
# In short: as §1
# [18] = biological target: Gal3S(b1-3)GalNAc
# In short: as §1
# [19] = biological target: Gal3S(b1-3)GlcNAc
# In short: as §1
# [20] = biological target: Gal3S(b1-3)[Fuc(a1-4)]GlcNAc
# In short: as §1
# [21] = biological target: Gal3S(b1-4)Glc
# In short: as §1
# [22] = biological target: Gal3S(b1-4)Glc6S
# In short: as §1
# [23] = biological target: Gal3S(b1-4)GlcNAc
# In short: as §1
# [24] = biological target: Gal3S(b1-4)GlcNAc6S
# In short: as §1
# [25] = biological target: Gal3S(b1-4)[Fuc(a1-3)]Glc
# In short: as §1
# [26] = biological target: Gal3S(b1-4)[Fuc(a1-3)]Glc6S
# In short: as §1
# [27] = biological target: Gal3S4S(b1-4)GlcNAc
# In short: as §1
# [28] = biological target: Gal3S6S(b1-4)GlcNAc
# In short: as §1
# [29] = biological target: Gal3S6S(b1-4)GlcNAc6S
# In short: as §1
# [30] = biological target: Gal4S(b1-4)GlcNAc
# In short: as §1
# [31] = biological target: Gal4S6S(b1-4)GlcNAc
# In short: as §1
# [32] = biological target: Gal6S(b1-3)GlcNAc
# In short: as §1
# [33] = biological target: Gal6S(b1-3)GlcNAc6S
# In short: as §1
# [34] = biological target: Gal6S(b1-4)Glc
# In short: as §1
# [35] = biological target: Gal6S(b1-4)Glc6S
# In short: as §1
# [36] = biological target: Gal6S(b1-4)GlcNAc
# In short: as §1
# [37] = biological target: Gal6S(b1-4)GlcNAc6S
# In short: as §1
# [38] = biological target: GalNAc(a1-3)Gal
# In short: as §1
# [39] = biological target: GalNAc(a1-3)GalNAc
# In short: as §1
# [40] = biological target: GalNAc(a1-3)GalNAc(a1-3)Gal(a1-4)Gal(b1-4)GlcNAc
# In short: as §1
# [41] = biological target: GalNAc(a1-3)GalNAc(b1-3)Gal(a1-4)Gal(b1-4)Glc
# In short: as §1
# [42] = biological target: GalNAc(b1-3)Gal
# In short: as §1
# [43] = biological target: GalNAc(b1-3)Gal(a1-4)Gal(b1-4)GlcNAc
# In short: as §1
# [44] = biological target: GalNAc(b1-3)Gal(a1-4)Gal(b1-4)GlcNAc(b1-3)Gal(b1-4)Glc
# In short: as §1
# [45] = biological target: GalNAc(b1-3)Gal(a1-6)Gal(b1-4)Glc
# In short: as §1
binder,measurement,setting,value
B1,glycan array binding signal (z-score),[1],0.169
same,glycan array binding signal (z-score),[2],-0.131
same,glycan array binding signal (z-score),[3],-0.139
same,glycan array binding signal (z-score),[4],1.81
same,glycan array binding signal (z-score),[5],1.45
same,glycan array binding signal (z-score),[6],2.22
same,glycan array binding signal (z-score),[7],3.2
same,glycan array binding signal (z-score),[8],-0.172
same,glycan array binding signal (z-score),[9],-0.155
same,glycan array binding signal (z-score),[10],-0.213
same,glycan array binding signal (z-score),[11],-0.144
same,glycan array binding signal (z-score),[12],-0.169
same,glycan array binding signal (z-score),[13],-0.147
same,glycan array binding signal (z-score),[14],-0.206
same,glycan array binding signal (z-score),[15],-0.213
same,glycan array binding signal (z-score),[16],-0.186
same,glycan array binding signal (z-score),[17],-0.173
same,glycan array binding signal (z-score),[18],-0.195
same,glycan array binding signal (z-score),[19],-0.07
same,glycan array binding signal (z-score),[20],-0.213
same,glycan array binding signal (z-score),[21],-0.187
same,glycan array binding signal (z-score),[22],-0.148
same,glycan array binding signal (z-score),[23],-0.181
same,glycan array binding signal (z-score),[24],-0.161
same,glycan array binding signal (z-score),[25],-0.192
same,glycan array binding signal (z-score),[26],-0.204
same,glycan array binding signal (z-score),[27],-0.065
same,glycan array binding signal (z-score),[28],-0.206
same,glycan array binding signal (z-score),[29],-0.212
same,glycan array binding signal (z-score),[30],-0.2
same,glycan array binding signal (z-score),[31],-0.205
same,glycan array binding signal (z-score),[32],-0.172
same,glycan array binding signal (z-score),[33],-0.179
same,glycan array binding signal (z-score),[34],-0.204
same,glycan array binding signal (z-score),[35],-0.213
same,glycan array binding signal (z-score),[36],-0.195
same,glycan array binding signal (z-score),[37],-0.191
same,glycan array binding signal (z-score),[38],-0.204
same,glycan array binding signal (z-score),[39],-0.211
same,glycan array binding signal (z-score),[40],-0.052
same,glycan array binding signal (z-score),[41],-0.044
same,glycan array binding signal (z-score),[42],-0.205
same,glycan array binding signal (z-score),[43],-0.189
same,glycan array binding signal (z-score),[44],1.22
same,glycan array binding signal (z-score),[45],-0.17
